PubChem BioAssay AID1347073 (National Center for Advancing Translational Sciences (NCATS), 2019)
The campaign covered roughly 45,000 compounds. About 200 (0.44%) were called active. The inconclusive results got no clear call from the source; some entries with a clear call stand among them for comparison. Calls come from the whole dose curve; as a rule, active = well fitted activation curve with a large enough effect; inconclusive = small, poorly fitted or top-dose-only effect; inactive = no such curve, though single readings can be large or run the other way. Where the call is inconclusive, the potency comes from a doubtful curve fit.

experiment: qHTS of TDP-43 Inhibitors: NCGC Sytravon Library Screen; details: yeast TDP-43 toxicity rescue, BacTiter-Glo growth, 24 h; growth rescue (activation): at 46.1 µM (top of the series); note: nearly all actives have a fitted effect of over 55% in size; for growth rescue (activation): 0% is about no effect
Procedure, shortened: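 TDP-43-expressing yeast, pregrown in raffinose, seeded at OD600 0.02 in galactose medium with compound for 24 hr at 30 deg C. Growth read by BacTiter-Glo luminescence, so rescue of toxicity appears as activation.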
Potency is the fitted concentration of half-maximal effect; tags give direction and shape of the fitted curve.

Compound	Potency	growth rescue (activation)
Fc1ccc(Nc2nc(-c3ccncc3)nc3ccccc23)cc1F	inconclusive: 1.78 µM [activator, full curve, poor fit]	
O=C(Nc1nc(-c2ccccc2)cs1)c1ccco1	inconclusive: 17.8 µM [activator, partial curve, poor fit]	
COC(=O)Nc1ccc(SCC(=O)c2ccccc2)cc1	inconclusive: 15.8 µM [activator, partial curve, poor fit]	
CC(C)COc1ccc(C(=O)OCC(=O)NCc2cccs2)cc1	inconclusive: 15.8 µM [activator, partial curve, poor fit]	
COc1cc2c(cc1OC)CN(C(=O)CSc1ccccc1C)CC2	inconclusive: 20 µM [activator, partial curve, poor fit]	
Cc1ccccc1CC1(CO)CCCN(Cc2ccc(C#CC(C)(C)O)cc2)C1 (stereo unspecified)	inactive	
C=CCNC(=S)N/N=C/c1ccc(-c2ccc(Cl)cc2Cl)o1	inactive	
CC(=O)N/C(=C/c1ccc(OS(=O)(=O)c2ccc(C)cc2)cc1)C(=O)Nc1ccc(C(=O)O)cc1	inconclusive: 35.5 µM [activator, single point]	
COC(=O)c1cc(C(=O)NC(C)C2CC3CCC2C3)cc([N+](=O)[O-])c1 (stereo unspecified)	inconclusive: 12.6 µM [activator, partial curve]	
COc1ccc(/C=C/C(=O)OCC(=O)NCCc2ccccc2)c(OC)c1	inconclusive: 35.5 µM [activator, single point]	
CC1(C(=O)c2ccccc2)C2c3c(ccc4ccccc34)OC(=O)C21C(=O)N1CCOCC1 (stereo unspecified)	inconclusive: 10 µM [activator, partial curve, poor fit]	
O=C(Cc1ccccc1)Nc1c(Cl)ccc2nsnc12	inactive	
CCOc1ccccc1NC(=O)c1ccccc1-c1ccccc1	inactive	
O=C1C=C(N2CCCCCC2)C(=O)N1c1ccc(Cl)cc1	inconclusive: 35.5 µM [activator, single point]	
NS(=O)(=O)c1ccc(CNC(=S)NCc2ccc(Cl)cc2)cc1	inconclusive: 22.4 µM [activator, single point]	
CCSc1nc(N)c2c3c(sc2n1)CCC3	inconclusive: 15.8 µM [activator, partial curve, poor fit]	
O=C(CSc1n[nH]c(-c2cccnc2)n1)Nc1ccc(Br)cc1	inactive	
CN(Cc1ccc(F)cc1)C(=O)c1cc(COc2ccc(-n3cncn3)cc2)on1	inconclusive: 17.8 µM [activator, partial curve, poor fit]	
COc1cc2ccccc2cc1C(=O)NC(=S)Nc1cccc(C(=O)O)c1C	inconclusive: 35.5 µM [activator, single point]	
CCN(CC(=O)Nc1ccc(OC)cc1)C(=O)c1ccc2ccccc2c1	inconclusive: 22.4 µM [activator, partial curve, poor fit]	
Cc1cc(C)cc(OCC(=O)N(C)CC(=O)Nc2ccc(N3CCOCC3)cc2)c1	inactive	
C/C(=C1/SC(N2CCCC2)=NC1=O)c1ccc(Br)cc1	inconclusive: 12.6 µM [activator, partial curve, poor fit]	

Compound	Potency	growth rescue (activation)
O=C(OCc1cc(Cl)cc2c1OCOC2)c1cccnc1Cl	inconclusive: 12.6 µM [activator, partial curve, poor fit]	
CC1=C(C(=O)NC(C)CCc2ccccc2)C2(CCC(C)CC2)OC1=O (stereo unspecified)	inactive	
COC(=O)c1ccc(N2CCOCC2)c(F)c1	inconclusive: 35.5 µM [activator, single point]	
Cc1ccc(CN=c2c([N+](=O)[O-])nn(-c3cccc(Cl)c3)n2O)cc1	inconclusive: 17.8 µM [activator, partial curve, poor fit]	
O=C(CSc1ccc(F)cc1)NCCc1ccc(Cl)cc1	inconclusive: 11.2 µM [activator, partial curve, poor fit]	
CN(Cc1ccccc1)C(=O)COC(=O)c1ccc(Br)o1	inconclusive: 35.5 µM [activator, single point]	
COc1ccc(/C=C/C(=O)NCCSCc2ccco2)cc1	inconclusive: 11.2 µM [activator, partial curve, poor fit]	
COCCCn1c(SCC(=O)Nc2ccc(NC(C)=O)cc2)nc2sc3c(c2c1=O)CCC3	inactive	
O=C(Cc1ccc2c(c1)OCCO2)Nc1cc(C(F)(F)F)ccc1N1CCOCC1	inconclusive: 17.8 µM [activator, partial curve, poor fit]	
O=C(CSc1nc(O)c(Cc2ccccc2)c(=O)[nH]1)c1ccccc1	inconclusive: 35.5 µM [activator, single point]	
Cc1ccc(C(=O)NNC2CC(=O)N(c3ccc4c(c3)OCCO4)C2=O)cc1 (stereo unspecified)	inactive	
Cc1cc(Cl)ccc1NC(=O)C1CCN(c2nnc(-n3c(C)ccc3C)s2)CC1	inactive	
Cc1ccc(C(=O)Nc2ccc(C)c(S(=O)(=O)N(C)C)c2)s1	inconclusive: 22.4 µM [activator, single point]	
CC1=CC(C)(C)N(C(=O)C(C)N2C(=O)c3ccccc3C2=O)c2ccc(C)cc21 (stereo unspecified)	inconclusive: 35.5 µM [activator, single point]	
COc1ccc(Cl)cc1NC(=O)c1cc(C)nn1-c1ccccc1	inconclusive: 11.2 µM [activator, partial curve]	
COc1ccc(C2=CC(c3ccc(Cl)cc3)n3cnnc3N2)cc1OC (stereo unspecified)	inconclusive: 17.8 µM [activator, partial curve, poor fit]	
CCCCOC(=O)Oc1ccc2c(=O)c(Oc3cccc(C)c3)coc2c1	inconclusive: 12.6 µM [activator, single point]	
CN(C)c1ccc(C(=O)NC2CCCc3ccccc32)cc1 (stereo unspecified)	inconclusive: 11.2 µM [activator, single point]	
CCOC(=O)C1CCN(C(=O)c2cc(COc3ccc(F)cc3F)on2)CC1	inconclusive: 14.1 µM [activator, partial curve, poor fit]	
Cc1ccc(Nc2c(-c3ccc(N4CCOCC4)cc3)nc3cnccn23)cc1	inconclusive: 31.6 µM [activator, single point]	
O=C(O)c1cccc(N/N=C/c2cc(Br)cc(Br)c2O)c1	inconclusive: 14.1 µM [activator, single point]	
O=c1c2nncn2c2cccnc2n1CCNc1ncc(C(F)(F)F)cc1Cl	inconclusive: 35.5 µM [activator, partial curve, poor fit]	

Compound	Potency	growth rescue (activation)
O=C(Nc1ccccc1Cl)c1cc(C2CCCN(C(=O)c3ccccc3)C2)on1 (stereo unspecified)		inconclusive: 42.6% [activator]
O=C(c1cc(COc2ccc(F)cc2Cl)on1)N1CCN(c2cnccn2)CC1	inconclusive: 12.6 µM [activator, partial curve, poor fit]	
COc1cccc(C(C)(O)c2nc(-c3cccs3)cs2)c1 (stereo unspecified)		inconclusive: 108% [activator]
CC(C)Cc1ccc(C(C)C(N)=NCCc2ccccc2)cc1 (stereo unspecified)	inactive	
Cc1ccccc1CNC(=O)c1cc(COc2ccc(F)cc2F)on1	inconclusive: 11.2 µM [activator, partial curve]	
CCN(CC)C(=S)SCC(=O)Nc1cccc(C(F)(F)F)c1	inconclusive: 22.4 µM [activator, single point]	
Cc1ccc(NC(=O)CN2C(=O)C(c3ccccc3)=NC2(C)C)cc1C	inconclusive: 25.1 µM [activator, single point]	
FC(F)(F)c1cccc(N2CCN(C(=S)NC3CCCC3)CC2)c1	inconclusive: 12.6 µM [activator, partial curve, poor fit]	
COc1ccc(/C=N/n2cnc3c([nH]c4ccc(F)cc43)c2=O)cc1CSc1ccccn1	inconclusive: 35.5 µM [activator, single point]	
CC1(Cc2cc(Cl)ccc2C(F)(F)F)C(=O)Nc2c(Cl)cccc21 (stereo unspecified)	inconclusive: 22.4 µM [activator, partial curve, poor fit]	
CC(C)NC(=O)c1ccc(CSCc2ccccc2Cl)o1	inconclusive: 12.6 µM [activator, partial curve]	
CC(C)NC(=S)Nc1ccc(Oc2ccccc2)cc1	inconclusive: 22.4 µM [activator, single point]	
Cc1cccc(C)c1NC(=O)c1nc(S(=O)(=O)Cc2ccccc2)ncc1Cl	inconclusive: 11.2 µM [activator, partial curve]	
CCCS(=O)(=O)NC(=O)C1(C)CCCN(C(=O)C2(c3ccc(Cl)cc3)CCCC2)C1 (stereo unspecified)	inactive	
CCCc1cc(NC(=O)CCl)n(-c2ccccc2)n1	inconclusive: 31.6 µM [activator, single point]	
c1ccc(CSc2ncn(-c3ccccc3)n2)cc1	inconclusive: 11.2 µM [activator, partial curve, poor fit]	
O=C(CCl)NC(=O)NC12CC3CC(CC(C3)C1)C2	inconclusive: 14.1 µM [activator, partial curve, poor fit]	
CCCCc1nc2cc(C(=O)N3CCNC(=O)C3CC(=O)OC)ccc2o1 (stereo unspecified)	inactive	
O=c1[nH]c(Cc2ccccn2)nc2scc(-c3ccccc3Cl)c12	inconclusive: 22.4 µM [activator, single point]	
CC1CCC(NC(=O)C2(C)Cc3ccccc3C(=O)N2Cc2ccc(F)cc2)CC1 (stereo unspecified)	inactive	
Cn1c(=O)c2cc(NC(=O)NCc3ccc(F)cc3)ccc2n1Cc1cccc(C(F)(F)F)c1	inactive	
CC1CCN(c2ccc([N+](=O)[O-])c(SCCO)c2)CC1	inconclusive: 12.6 µM [activator, single point]	
